Assay results published in PubChem BioAssay (Tox21).
Several values for one entry are separate records, joined by “and”; a condition that tells them apart may be missing. Equal entries are not always repeated. This list was built around the results that the source calls inconclusive (neither active nor inactive); the mix of calls is not that of the screen. A potency beside an inconclusive call is a rough fit, not a confirmed value. Activity calls are given as the source filed them. Calls follow the shape of the dose curve; as a rule, active = well fitted cell-killing curve with a large enough effect in the repeat runs; inconclusive = weak or mixed curves, or effect the other way; inactive = flat fitted curve, though single readings scatter.

assay: qHTS assay to identify small molecule antagonists of the estrogen receptor alpha (ER-alpha) signaling pathway using the BG1 cell line - cell viability counter screen (AID 743081); conditions: BG1Luc4E2 viability, CellTiter-Fluor, 22 h; activity change, negative = cytotoxicity: at 70.3 µM (top of the series);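 also: compound given together with 17beta-estradiol as the ER stimulus; nearly all actives have a fitted effect of over 45% in size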
% is scaled to controls: 0 for no effect and ±100 for the full control effect; potency is read from the fitted curve at half-maximal effect; tags tell the direction and shape of the fitted curve.

For O=[N+]([O-])c1ccc(O)c2ncccc12, which Potency is on record?
Its Potency is inconclusive: 21.1 µM [cytotoxic, partial curve].

With CC[C@]1(O)C[C@@H]2CN(CCc3c([nH]c4ccccc34)[C@@](C(=O)OC)(c3cc4c(cc3OC)N(C)[C@H]3[C@@](O)(C(=O)OC)[C@H](OC(C)=O)[C@]5(CC)C=CCN6CC[C@]43[C@@H]65)C2)C1 as the compound, how does the Potency read?
Its Potency is inconclusive: 16.8 µM [cytotoxic, partial curve] and active: 15 µM.

Which Potency does the source give for C[n+]1c2cc(N)ccc2cc2ccc(N)cc21 (tested in a mixture with another compound) here?
Its Potency is inconclusive: 26.6 µM [rising, partial curve].

Which Potency does the source give for NC(N)=NN=C(/C=C/c1ccc([N+](=O)[O-])o1)/C=C/c1ccc([N+](=O)[O-])o1 here?
Its Potency is active: 23.7 µM.

Which “activity change, negative = cytotoxicity” value does the source give for CCCCC/C=C\C=C\C(=O)OCC here?
The value was inactive: -17.4% [at 95 µM].

With COc1cc(C=C2CCC/C(=C\c3ccc(O)c(OC)c3)C2=O)ccc1O as the compound, how does the Potency read?
The Potency was inconclusive: 33.5 µM [cytotoxic, single point].

For COc1cccc2c1C(=O)c1c(O)c3c(c(O)c1C2=O)C[C@@](O)(C(=O)CO)C[C@@H]3O[C@H]1C[C@H](N)[C@H](O[C@@H]2CCCCO2)[C@H](C)O1, which Potency is on record?
The Potency was active: 9.44 µM.

For Cc1c(O)cccc1C(=O)N[C@@H](CSc1ccccc1)[C@H](O)CN1C[C@H]2CCCC[C@H]2C[C@H]1C(=O)NC(C)(C)C, which Potency is on record?
The Potency was active: 18.8 µM and active: 26.6 µM.

Which Potency does the source give for CC(C)c1ccc2c(c1)CC[C@H]1[C@](C)(CN)CCC[C@]21C here?
Its Potency is inconclusive: 68.6 µM [cytotoxic, single point].

For Oc1cc2c(cc1O)[C@H]1c3ccc(O)c(O)c3OC[C@@]1(O)C2, which Potency is on record?
The Potency was active: 49.2 µM.

Which Potency does the source give for CN1C(=O)c2ccccc2C1=O here?
The Potency was inconclusive: 15.4 µM [rising, partial curve, poor fit].

With O=C1CCc2ccc(OCCCCN3CCN(c4cccc(Cl)c4Cl)CC3)cc2N1 as the compound, how does the Potency read?
The Potency was inconclusive: 21.1 µM [cytotoxic, partial curve].

With Nc1ccc2cc3ccccc3cc2c1 as the compound, how does the Potency read?
The Potency was inconclusive: 69.8 µM [rising, partial curve, poor fit].

Which Potency does the source give for CN1CCN(CCC(=O)N2c3ccccc3Sc3ccc(C(F)(F)F)cc32)CC1 here?
Its Potency is inconclusive: 23.7 µM [cytotoxic, partial curve].

With Cc1cc(=O)c2c(O)c3c(O)cc(=O)c4c3c3c(cc(O)c1c23)C(C)(C)C=4O as the compound, how does the Potency read?
The Potency was inconclusive: 3.76 µM [cytotoxic, full curve].

For CC(C(O)c1ccccc1)N(C)CCOC(c1ccccc1)c1ccccc1 (stereo not drawn), which Potency is on record?
Its Potency is inconclusive: 33.5 µM [cytotoxic, single point].

With O=C(O)Cc1cc(I)c(Oc2cc(I)c(O)c(I)c2)c(I)c1 as the compound, how does the “activity change, negative = cytotoxicity” value read?
Its value is inactive: 4.72%.

Which Potency does the source give for CN1CC[C@H](c2c(O)cc(O)c3c(=O)cc(-c4ccccc4Cl)oc23)[C@H](O)C1 here?
The Potency was inconclusive: 0.75 µM [cytotoxic, full curve, poor fit].
